Measured values taken from the antibiotic and cytotoxicity screens of Wong et al. (2023).
This is one part of the list.

What follows are compounds tested on HSkMC (human skeletal muscle cells) (assay: cytotoxicity call (relative viability < 0.9)). Conditions: 10 µM.
In the case of `Cc1noc(C)c1S(=O)(=O)Nc1ccc2c(c1)C(=O)N([C@H](C)CO)C[C@H](C)[C@H](CN(C)S(=O)(=O)c1cn(C)cn1)O2`, the cytotoxicity call is reported as “inactive”.
`C[C@@H]1CCCCO[C@@H](CN(C)C(=O)c2ccncc2)[C@@H](C)CN([C@H](C)CO)C(=O)c2cc(NC(=O)CCCCCC(=O)Nc3ccccc3N)ccc2O1` was tested, and the cytotoxicity call was “inactive”.
`C[C@H](CO)N1C[C@H](C)[C@@H](CN(C)C(=O)Nc2ccc(F)cc2)Oc2ccc(NC(=O)Nc3ccc(C(F)(F)F)cc3)cc2C1=O` was tested, and the cytotoxicity call was “inactive”.
`Nc1ncccc1-c1nc2ccc(-c3ccccc3)nc2n1-c1ccc(C2(N)CCC2)cc1` was tested, and the cytotoxicity call was “active”.
With `COc1ccc(NC(=O)N(C)C[C@H]2Oc3c(NS(=O)(=O)c4cn(C)cn4)cccc3C(=O)N([C@@H](C)CO)C[C@@H]2C)cc1` the cytotoxicity call was “inactive”.
For `C[C@@H]1CCCCO[C@H](CN(C)C(=O)Cc2ccccc2)[C@H](C)CN([C@H](C)CO)C(=O)c2cc(NS(=O)(=O)c3ccc(F)cc3)ccc2O1`, the cytotoxicity call was “inactive”.
In the case of `CCOC(=O)[C@H]1CCCN([C@H]2CS(=O)(=O)C[C@@H]2S(=O)(=O)c2ccccc2)C1`, the cytotoxicity call is reported as “inactive”.
For `COc1ccccc1CNC(=O)C[C@H]1C[C@H]2c3cc(NC(=O)C4CCOCC4)ccc3O[C@H]2[C@H](CO)O1`, the cytotoxicity call was “inactive”.
In the case of `CC(C)(C)[S@](=O)N1Cc2cc(C(=O)NCc3ccc4c(c3)OCO4)nc(-c3cccc(-c4ccncc4)c3)c2[C@@H]1CCO`, the cytotoxicity call is reported as “inactive”.

The compounds below were run on HepG2 (assay: cytotoxicity call (relative viability < 0.9)). Conditions: 10 µM.
`CC(C)NC(=O)Nc1ccc2c(c1)CC(=O)N([C@H](C)CO)C[C@H](C)[C@@H](CN(C)C(=O)NC1CCCCC1)O2` was tested, and the cytotoxicity call was “inactive”.
In the case of `COc1ccc(CNC(=O)C[C@H]2CC[C@@H]3[C@H](COc4ccc(NC(=O)C5CC5)cc4C(=O)N3C)O2)cc1`, the cytotoxicity call is reported as “inactive”.
In the case of `C[C@@H]1CN([C@@H](C)CO)C(=O)c2cc(NS(=O)(=O)c3ccc(Cl)cc3)ccc2O[C@@H]1CN(C)Cc1ccc(Oc2ccccc2)cc1`, the cytotoxicity call is reported as “active”.
`CCOC(=O)OC(C)OC1=C(C(=O)Nc2ccccn2)N(C)S(=O)(=O)c2ccccc21` (centres undefined) was tested, and the cytotoxicity call was “inactive”.
For `C[C@H]1CN([C@@H](C)CO)C(=O)Cc2cc(NC(=O)Cn3cnnn3)ccc2O[C@H]1CN(C)Cc1ccc(C(=O)O)cc1`, the cytotoxicity call was “inactive”.
`Cc1noc(C)c1S(=O)(=O)Nc1ccc2c(c1)CC(=O)N([C@H](C)CO)C[C@H](C)[C@@H](CN(C)C(=O)NC1CCCCC1)O2` was tested, and the cytotoxicity call was “inactive”.
For `O=C(O)CCc1nc(-c2ccccc2)c(-c2ccccc2)o1`, the cytotoxicity call was “inactive”.
For `CC(C)=CCC/C(C)=C/C(=O)O`, the cytotoxicity call was “inactive”.
In the case of `CNC[C@H]1OCCCC[C@@H](C)Oc2ccc(NC(=O)Nc3cccc4ccccc34)cc2C(=O)N([C@@H](C)CO)C[C@H]1C`, the cytotoxicity call is reported as “inactive”.
With `CCOc1ccc2ccccc2c1C(=O)NC1C(=O)N2C1SC(C)(C)C2C(=O)[O-].[Na+]` (centres undefined) the cytotoxicity call was “inactive”.
For `C[C@@H]1CN([C@@H](C)CO)C(=O)c2cc(NC(=O)Nc3ccc4c(c3)OCO4)ccc2O[C@@H](C)CCCCO[C@H]1CN(C)Cc1ccccc1`, the cytotoxicity call was “inactive”.
With `Cc1noc(C)c1NC(=O)N(C)C[C@@H]1OCCCC[C@H](C)Oc2ccc(NS(=O)(=O)c3ccccc3)cc2C(=O)N([C@H](C)CO)C[C@@H]1C` the cytotoxicity call was “inactive”.
With `CCCN(C)C[C@H]1OCCCC[C@H](C)Oc2ccc(NC(=O)Nc3ccc(F)cc3)cc2C(=O)N([C@@H](C)CO)C[C@H]1C` the cytotoxicity call was “inactive”.
For `CCCCCC(CC(=O)O)C(=O)O` (centres undefined), the cytotoxicity call was “inactive”.
`CC1(C)NCS[C@H]1C(=O)O` was tested, and the cytotoxicity call was “inactive”.
With `O=C(C[C@H]1CC[C@@H]2[C@H](COC[C@H](O)CN2S(=O)(=O)c2ccc(Cl)cc2)O1)NCCN1CCCC1` the cytotoxicity call was “inactive”.
In the case of `Cc1noc(C)c1S(=O)(=O)Nc1ccc2c(c1)C(=O)N([C@@H](C)CO)C[C@@H](C)[C@H](CN(C)C(=O)Nc1cccc3ccccc13)OCCCC[C@H](C)O2`, the cytotoxicity call is reported as “inactive”.
For `CN(C)CCOc1ccc(C#N)cn1`, the cytotoxicity call was “inactive”.
In the case of `CCC1(O)CC2CN(CCc3c([nH]c4ccccc34)C(C(=O)OC)(c3cc4c(cc3OC)N(C)C3C(O)(C(=O)OC)C(OC(C)=O)C5(CC)C=CCN6CCC43C65)C2)C1.O=S(=O)(O)O` (centres undefined), the cytotoxicity call is reported as “active”.
`Cc1noc(C)c1NC(=O)Nc1cccc2c1O[C@H](CN(C)C(=O)NC(C)C)[C@H](C)CN([C@H](C)CO)C2=O` was tested, and the cytotoxicity call was “inactive”.
For `COc1ccc(CN(C)C[C@@H]2OCCCC[C@H](C)Oc3ccc(NC(=O)c4ccccc4)cc3C(=O)N([C@H](C)CO)C[C@H]2C)cc1`, the cytotoxicity call was “inactive”.
`C[C@H]1CCCCO[C@@H](CN(C)C(=O)Nc2ccc(F)cc2)[C@@H](C)CN([C@@H](C)CO)C(=O)c2cc(NS(=O)(=O)c3ccccc3)ccc2O1` was tested, and the cytotoxicity call was “inactive”.
`Cc1cc(C(=O)Nc2cccc3c2O[C@H](CN(C)C(=O)Nc2c(C)noc2C)[C@H](C)CN([C@H](C)CO)C3=O)n(C)n1` was tested, and the cytotoxicity call was “inactive”.
In the case of `C[C@@H]1CN([C@H](C)CO)C(=O)c2cc(NC(=O)CCC(F)(F)F)ccc2O[C@@H](C)CCCCO[C@@H]1CN(C)Cc1ccc2c(c1)OCO2`, the cytotoxicity call is reported as “inactive”.
With `COc1ccc(NC(=O)N(C)C[C@@H]2Oc3ccc(NC(=O)CCCCCC(=O)Nc4ccccc4N)cc3C(=O)N([C@H](C)CO)C[C@H]2C)cc1` the cytotoxicity call was “inactive”.
For `C[C@@H]1CN([C@H](C)CO)C(=O)c2cc(NC(=O)Nc3ccc4c(c3)OCO4)ccc2O[C@@H](C)CCCCO[C@@H]1CN(C)S(=O)(=O)c1cccs1`, the cytotoxicity call was “inactive”.
For `C[C@@H]1CNS(=O)(=O)CO1`, the cytotoxicity call was “inactive”.
With `C[C@H](NC(=O)N(C)C[C@@H]1OCc2ccccc2-c2c(n(C)c3ccccc23)C(=O)N([C@H](C)CO)C[C@@H]1C)c1ccccc1` the cytotoxicity call was “inactive”.
With `CNC(=NCc1ccc(OC)cc1)NC` the cytotoxicity call was “inactive”.
In the case of `C[C@@H]1CN([C@@H](C)CO)C(=O)c2cc(NC(=O)Nc3cccc4ccccc34)ccc2O[C@@H](C)CCCCO[C@H]1CN(C)S(=O)(=O)c1ccc(F)cc1`, the cytotoxicity call is reported as “inactive”.
For `COc1ccc([Si](C)(C)[C@H]2[C@H](CCOC(=O)NCCCCCC(=O)NO)O[C@@]3(C(=O)N(Cc4ccccc4)c4ccc(I)cc43)[C@@H]2C)cc1`, the cytotoxicity call was “inactive”.
For `Cc1noc(C)c1S(=O)(=O)Nc1ccc2c(c1)C(=O)N([C@H](C)CO)C[C@H](C)[C@H](CN(C)S(=O)(=O)c1cn(C)cn1)O2`, the cytotoxicity call was “inactive”.
`C[C@@H]1CCCCO[C@@H](CN(C)C(=O)c2ccncc2)[C@@H](C)CN([C@H](C)CO)C(=O)c2cc(NC(=O)CCCCCC(=O)Nc3ccccc3N)ccc2O1` was tested, and the cytotoxicity call was “inactive”.
With `C[C@H](CO)N1C[C@H](C)[C@@H](CN(C)C(=O)Nc2ccc(F)cc2)Oc2ccc(NC(=O)Nc3ccc(C(F)(F)F)cc3)cc2C1=O` the cytotoxicity call was “inactive”.
In the case of `Nc1ncccc1-c1nc2ccc(-c3ccccc3)nc2n1-c1ccc(C2(N)CCC2)cc1`, the cytotoxicity call is reported as “active”.
For `COc1ccc(NC(=O)N(C)C[C@H]2Oc3c(NS(=O)(=O)c4cn(C)cn4)cccc3C(=O)N([C@@H](C)CO)C[C@@H]2C)cc1`, the cytotoxicity call was “inactive”.
For `C[C@@H]1CCCCO[C@H](CN(C)C(=O)Cc2ccccc2)[C@H](C)CN([C@H](C)CO)C(=O)c2cc(NS(=O)(=O)c3ccc(F)cc3)ccc2O1`, the cytotoxicity call was “inactive”.
In the case of `CCOC(=O)[C@H]1CCCN([C@H]2CS(=O)(=O)C[C@@H]2S(=O)(=O)c2ccccc2)C1`, the cytotoxicity call is reported as “inactive”.
`COc1ccccc1CNC(=O)C[C@H]1C[C@H]2c3cc(NC(=O)C4CCOCC4)ccc3O[C@H]2[C@H](CO)O1` was tested, and the cytotoxicity call was “inactive”.
For `CC(C)(C)[S@](=O)N1Cc2cc(C(=O)NCc3ccc4c(c3)OCO4)nc(-c3cccc(-c4ccncc4)c3)c2[C@@H]1CCO`, the cytotoxicity call was “inactive”.
